Molecules are shown by their SMILES. Some of the results follow.

Our source for the cytotoxicity call and growth inhibition call values is the antibiotic and cytotoxicity screens of Wong et al. (2023).

In experiment [1] the test system is HSkMC (human skeletal muscle cells). In words: cytotoxicity call (relative viability < 0.9). The note with it: 10 µM.
The test system of experiment [2] is HepG2. Nature of the experiment: cytotoxicity call (relative viability < 0.9). The note with it: 10 µM.
Experiment [3] deals with S. aureus RN4220. Nature of the experiment: growth inhibition call (relative growth <= 0.2). The note with it: 50 µM.

Regarding `S=C(Nc1ccccc1)Nc1ccc2c(c1)oc1ccccc12`, the cytotoxicity call in experiment [1] and in experiment [2] was “inactive” throughout. In experiment [3], the growth inhibition call was “inactive”.

For `COc1ccc(S(=O)(=O)N(C)C[C@@H]2OCCCC[C@H](C)Oc3ccc(NC(=O)Nc4cccc5ccccc45)cc3C(=O)N([C@H](C)CO)C[C@@H]2C)cc1`, the cytotoxicity call in experiment [1] and in experiment [2] was “inactive” throughout. Also, the growth inhibition call in experiment [3] was “inactive”.

Regarding `C[C@@H]1CCCCO[C@H](CN(C)Cc2ccc3c(c2)OCO3)[C@@H](C)CN([C@H](C)CO)C(=O)c2cc(NC(=O)Cc3ccccc3)ccc2O1`, the cytotoxicity call in experiment [1] and in experiment [2] was “inactive” in each case. Also, in experiment [3], the growth inhibition call was “inactive”.

For `C[C@H](CO)N1C[C@H](C)[C@@H](CN(C)C(=O)Cc2ccncc2)Oc2cc(C#CC3CCCC3)ccc2S1(=O)=O`, the cytotoxicity call in experiment [1] and in experiment [2] was “inactive” throughout. Also, the growth inhibition call in experiment [3] was “inactive”.

For the molecule `COc1ccc(C(=O)Nc2ccc3c(c2)C(=O)N(C)[C@@H]2CC[C@@H](CC(=O)NCC4CC4)O[C@@H]2CO3)cc1`, the cytotoxicity call in experiment [1] and in experiment [2] was “inactive” each time. The growth inhibition call in experiment [3] is “inactive”.

Take `O=C(C[C@@H]1CC[C@H]2[C@@H](COC[C@@H](O)CN2S(=O)(=O)c2ccc(Cl)cc2)O1)N1CCc2ccccc2C1`: the cytotoxicity call in experiment [1] and in experiment [2] was “inactive” each time. Moreover, the growth inhibition call in experiment [3] is “inactive”.

Take `C[C@H]1CN([C@@H](C)CO)S(=O)(=O)c2ccc(-c3cncnc3)cc2O[C@@H]1CN(C)C(=O)CN(C)C`: the cytotoxicity call in experiment [1] and in experiment [2] was “inactive” throughout. Also, the growth inhibition call in experiment [3] is “inactive”.

As for `C[C@@H]1CN([C@H](C)CO)S(=O)(=O)c2ccc(C#Cc3ccccc3F)cc2O[C@@H]1CN(C)CC1CC1`, the cytotoxicity call in experiment [1] and in experiment [2] was “inactive” throughout. Also, the growth inhibition call in experiment [3] was “inactive”.

For `C[C@@H]1CCCCO[C@H](CN(C)C(=O)Nc2cccc3ccccc23)[C@@H](C)CN([C@@H](C)CO)C(=O)c2cc(NC(=O)Cc3ccccc3)ccc2O1`, the cytotoxicity call in experiment [1] and in experiment [2] was “inactive” each time. In experiment [3], the growth inhibition call is “inactive”.

`C[C@H]1CN([C@@H](C)CO)C(=O)c2cc(NS(=O)(=O)c3ccc(F)cc3)ccc2O[C@H]1CN(C)S(=O)(=O)c1cn(C)cn1`: the cytotoxicity call in experiment [1] and in experiment [2] was “inactive” each time. Moreover, in experiment [3], the growth inhibition call is “inactive”.

As for `COCC(=O)Nc1ccc2c(c1)OC[C@H](C)N(Cc1cccc(F)c1)C[C@@H](C)[C@@H](OC)CN(C)C2=O`, the cytotoxicity call in experiment [1] and in experiment [2] was “inactive” throughout. For the same molecule, in experiment [3], the growth inhibition call was “inactive”.

Regarding `C[C@@H]1CN([C@@H](C)CO)C(=O)c2cc(NC(=O)CCCN(C)C)ccc2O[C@@H]1CN(C)C(=O)Nc1ccc2c(c1)OCO2`, the cytotoxicity call in experiment [1] and in experiment [2] was “inactive” throughout. The growth inhibition call in experiment [3] is “inactive”.

For `CCC(=O)Nc1ccc2c(c1)OC[C@@H](C)N(C(=O)CN1CCOCC1)C[C@@H](C)[C@H](OC)CN(C)C2=O`, the cytotoxicity call in experiment [1] and in experiment [2] was “inactive” in each case. Besides, in experiment [3], the growth inhibition call is “inactive”.

On to `C[C@@H]1CN([C@@H](C)CO)C(=O)c2cc(NC(=O)CCC(F)(F)F)ccc2O[C@H]1CN(C)S(=O)(=O)c1cn(C)cn1`, for which the cytotoxicity call in experiment [1] and in experiment [2] was “inactive” in each case. In addition, in experiment [3], the growth inhibition call was “inactive”.

As for `C=CC(=O)c1ccc2ccccc2c1`, the cytotoxicity call in experiment [1] and in experiment [2] was “inactive” in each case. Besides, in experiment [3], the growth inhibition call was “inactive”.

In the case of `C[C@@H]1CN([C@@H](C)CO)C(=O)c2cc(NC(=O)Nc3ccccc3)ccc2O[C@@H](C)CCCCO[C@@H]1CN(C)S(=O)(=O)c1ccccc1`, the cytotoxicity call in experiment [1] and in experiment [2] was “inactive” throughout. In addition, the growth inhibition call in experiment [3] is “inactive”.

As to `CN1CCN(c2c(F)cc3c(=O)c(C(=O)O)cn(CCF)c3c2F)CC1`, the cytotoxicity call in experiment [1] and in experiment [2] was “inactive” each time. In addition, the growth inhibition call in experiment [3] is “active”.

In the case of `Nc1ccccc1OCc1ccccc1`, the cytotoxicity call in experiment [1] and in experiment [2] was “inactive” in each case. For the same molecule, the growth inhibition call in experiment [3] was “inactive”.

As for `Cc1noc(C)c1S(=O)(=O)N(C)C[C@@H]1Oc2c(NS(=O)(=O)c3ccc(F)cc3)cccc2C(=O)N([C@H](C)CO)C[C@@H]1C`, the cytotoxicity call in experiment [1] and in experiment [2] was “inactive” in each case. Also, the growth inhibition call in experiment [3] is “inactive”.

Take `C[C@@H]1CN([C@H](C)CO)C(=O)Cc2cc(NC(=O)NC3CCCCC3)ccc2O[C@@H]1CN(C)C(=O)Nc1ccc(C(F)(F)F)cc1`: the cytotoxicity call in experiment [1] and in experiment [2] was “inactive” throughout. For the same molecule, the growth inhibition call in experiment [3] is “inactive”.

`O=C(C[C@H]1C[C@@H]2c3cc(NS(=O)(=O)c4ccc(F)cc4)ccc3O[C@@H]2[C@H](CO)O1)NCCN1CCCCC1`: the cytotoxicity call in experiment [1] and in experiment [2] was “inactive” throughout. The growth inhibition call in experiment [3] is “inactive”.

For `CCCNC(=O)N1C[C@@H](O)COC[C@H]2O[C@H](CC(=O)NCc3ccncn3)CC[C@@H]21`, the cytotoxicity call in experiment [1] and in experiment [2] was “inactive” throughout. Moreover, in experiment [3], the growth inhibition call is “inactive”.

Regarding `C[C@H](CO)N1C[C@H](C)[C@H](CN(C)Cc2ccccc2)OCCCC[C@H](C)Oc2ccc(NC(=O)NC3CCCCC3)cc2C1=O`, the cytotoxicity call in experiment [1] and in experiment [2] was “inactive” in each case. For the same molecule, the growth inhibition call in experiment [3] was “inactive”.

As to `O=C(C[C@@H]1C=C[C@@H](NC(=O)C2CC2)[C@@H](CO)O1)NCCCN1CCOCC1`, the cytotoxicity call in experiment [1] and in experiment [2] was “inactive” in each case. Further, the growth inhibition call in experiment [3] is “inactive”.

Take `CCCNC(=O)[C@@]1(Sc2ccc(C)cc2)CC(=O)N(Cc2ccccc2Cl)[C@@H]1c1ccc(CO)cc1I`: the cytotoxicity call in experiment [1] and in experiment [2] was “inactive” in each case. For the same molecule, the growth inhibition call in experiment [3] is “inactive”.

In the case of `CC(C)NC(=O)Nc1ccc2c(c1)C(=O)N([C@H](C)CO)C[C@H](C)[C@H](CN(C)C(=O)Nc1ccc(F)cc1)OCCCC[C@H](C)O2`, the cytotoxicity call in experiment [1] and in experiment [2] was “inactive” in each case. Moreover, the growth inhibition call in experiment [3] was “inactive”.

For `C[C@H](CO)N1C[C@H](C)[C@@H](CN(C)S(=O)(=O)c2cccs2)Oc2ccc(NS(=O)(=O)c3cccs3)cc2CC1=O`, the cytotoxicity call in experiment [1] was “inactive”. The cytotoxicity call in experiment [2] is “active”. Further, in experiment [3], the growth inhibition call is “inactive”.

In the case of `COc1ccc(S(=O)(=O)Nc2ccc3c(c2)C(=O)N([C@H](C)CO)C[C@H](C)[C@@H](CN(C)Cc2ccc(Cl)c(Cl)c2)O3)cc1`, the cytotoxicity call in experiment [1] and in experiment [2] was “inactive” each time. The growth inhibition call in experiment [3] is “inactive”.

As for `CC(C)(C#N)c1cc(Cn2cncn2)cc(C(C)(C)C#N)c1`, the cytotoxicity call in experiment [1] and in experiment [2] was “inactive” throughout. Moreover, in experiment [3], the growth inhibition call is “inactive”.
